Structures are written as SMILES. In all, about 150,000 compounds went through this assay and about 540 (0.36%) showed an effect of 50% or more. The list shows a part of the results.

The test system of this assay is Plasmodium falciparum. Briefly: Primary screen in NF54 nanoGlo assay, in single point, at 2uM, 72h; a lower Z score goes with more inhibition. In kind it is functional, Erythrocyte. Conditions: timepoint 72 hour.
Turning to `Cc1c(F)cccc1NC(=O)CN(C)CCCn1cccn1`, the “% Inhibition” value was -12% and the Z score amounted to 2.32.

Take `CC(=O)N1CCC([C@@H]2CN(Cc3ccc(C(F)(F)F)cc3)C[C@H]2CO)CC1`: the “% Inhibition” value was -14% and the Z score came out at 1.64.

Turning to `O=C(Nc1ccccc1Cl)N1CC[C@@]2(CCCN(Cc3cccnc3)C2=O)C1`, the “% Inhibition” value is listed as -9% and the Z score is recorded as 1.48.

For `CC1CCC(O)C(C2CCCCN2C(=O)c2ccc(C(N)=O)cc2)C1` (centres undefined), the “% Inhibition” value was -2% and the Z score is listed as 0.21.

Take `CCN(C)C1=Nc2ccccc2Oc2ccc(NC(=O)CC3CCCC3)cc21`: the “% Inhibition” value was -15% and the Z score is 1.86.

For `O=C(CCCc1ccccc1)N1CCN(C[C@H](O)C2CC2)CC1`, the “% Inhibition” value is given as -2% and the Z score was found to be 0.24.

Turning to `CC[C@@H](c1ccccn1)n1cnc2cccc(C(F)(F)F)c2c1=O`, the “% Inhibition” value stood at 14% and the Z score is reported as -1.97.

For `CNS(=O)(=O)CC(=O)NCC1(c2ccc(Cl)cc2)CCCC1`, the “% Inhibition” value is reported as -10% and the Z score turned out to be 1.58.

For the compound `Cc1cnccc1CC(=O)Nc1ncccc1OC(C)C`, the “% Inhibition” value is recorded as -13% and the Z score is recorded as 1.48.

Consider `COc1ccc(CN2C(=O)CO[C@H]3CN(Cc4ccc(C)cc4)C[C@H]32)cc1`, for which the “% Inhibition” value is on record as -3% and the Z score is 0.51.

`Cc1cccc(CN(Cc2nc(C(=O)NCc3cccnc3)co2)C(C)C)c1`: the “% Inhibition” value is reported as -7% and the Z score came out at 1.17.

Turning to `COc1ccccc1NC(=O)c1ccc(N2C(=O)CCS2(=O)=O)cc1Cl`, the “% Inhibition” value is -5% and the Z score turned out to be 0.68.

Consider `CNC(=O)c1cc2c(s1)CCN(C(=O)[C@@H]1CNCCO1)C2`, for which the “% Inhibition” value was 3% and the Z score is listed as -0.58.

For the compound `CCNC(=O)N1CCC(Cc2ccc(C(=O)N3CCOCC3)cc2)CC1`, the “% Inhibition” value is listed as -9% and the Z score was found to be 1.11.

Consider `Cc1ocnc1C(=O)N1CCC([C@@H](O)CCc2ccccc2)CC1`, for which the “% Inhibition” value is recorded as -8% and the Z score amounted to 1.64.

As for `Cc1nc(-c2cccc(C#N)c2)nn1CCS(C)(=O)=O`, the “% Inhibition” value is 0% and the Z score is reported as 0.

Take `Cc1ccc(-c2cc(O)c3c(c2)CN(Cc2ncccc2C)CCO3)cc1`: the “% Inhibition” value is recorded as -11% and the Z score was 2.07.

With `CCC(CC)n1nc(C)cc1NC(=O)c1ncn[nH]1`, the “% Inhibition” value stood at 11% and the Z score is -1.45.

As to `Cc1n[nH]c(C)c1S(=O)(=O)NCc1cnn2c1CCCC2`, the “% Inhibition” value was -8% and the Z score stood at 1.45.

With `COc1ccc(-c2nc(C)nc(N3CCCC3)c2N)cc1`, the “% Inhibition” value was -8% and the Z score amounted to 0.97.

With `Cn1c(=O)sc2cc(NC(=O)Cc3ccc(F)cc3)ccc21`, the “% Inhibition” value was -4% and the Z score was found to be 0.55.

Take `CCCNC(=O)C1CCN(Cc2cn(C)nc2C2CCCC2)CC1`: the “% Inhibition” value is 1% and the Z score is given as -0.16.

For `CCc1ccc([C@H](C)NCc2cc(F)ccc2CS(C)(=O)=O)o1`, the “% Inhibition” value is listed as -1% and the Z score is 0.1.

As to `COC[C@H]1COCCN1C(=O)Cc1nnc(-c2ccccc2OC)o1`, the “% Inhibition” value is listed as -10% and the Z score was found to be 1.34.

For the compound `CCOc1ccc(-c2nc(-c3ccc4c(c3)ncn4CCC(=O)N3CCCCCC3)no2)cc1`, the “% Inhibition” value is reported as -26% and the Z score worked out at 5.26.

With `Cc1csc([C@@H]2CN(c3ncc(Cl)cc3Cl)CCO2)n1`, the “% Inhibition” value is -11% and the Z score was determined as 1.43.

Regarding `Cc1ccc(CC(=O)N2CCS(=O)(=O)c3c2c(C)nn3C)cc1C`, the “% Inhibition” value was 13% and the Z score is recorded as -1.5.

For the compound `CC(C)n1ncc(C(=O)N[C@@H](C)C(C)(C)C)c1C(F)(F)F`, the “% Inhibition” value was found to be 1% and the Z score is reported as -0.11.

Regarding `O=C(c1cccnc1)N1C[C@H]2CC[C@@H](C1)N(C(=O)N1CCCC1)C2`, the “% Inhibition” value was -2% and the Z score came to 0.3.

With `Cc1c(C)n2c3c(c(NC(=O)c4ccccc4)ccc13)CCC2`, the “% Inhibition” value is on record as 0% and the Z score is listed as 0.02.

Turning to `CNC(=O)[C@H]1CCCN(c2nc(-c3cccnc3)nc(C)c2C)C1`, the “% Inhibition” value is -6% and the Z score is recorded as 1.22.

Turning to `O=S1(=O)c2ccccc2N(Cc2ccccc2Cl)c2ccccc21`, the “% Inhibition” value is -7% and the Z score is given as 0.75.

`Cc1cc(F)ccc1S(=O)(=O)N1CC(Oc2cc(C)n(C)c(=O)c2)C1`: the “% Inhibition” value is given as -11% and the Z score came out at 1.21.

As for `CC(=O)N[C@@H](CC(C)C)C(=O)ON1C(=O)CCC1=O`, the “% Inhibition” value stood at 5% and the Z score is -0.73.

Turning to `CC(=O)Nc1ccc2nc(N(C(=O)c3cc(Cl)ccc3Cl)C(=O)c3cc(Cl)ccc3Cl)sc2c1`, the “% Inhibition” value amounted to 7% and the Z score is reported as -1.07.

As for `Cc1cc(C(=O)Nc2sc3c(c2C(N)=O)CCC3)on1`, the “% Inhibition” value is reported as -18% and the Z score came to 3.46.

Take `CN(C(=O)c1ccc(N(Cc2ccc(F)cc2)S(C)(=O)=O)cc1)c1ccccc1`: the “% Inhibition” value is -44% and the Z score is given as 5.13.

Turning to `Cc1cc(-c2ccncc2)nn1CCNC(=O)Nc1ccccc1`, the “% Inhibition” value stood at 19% and the Z score is given as -2.5.

For the compound `Cc1ncoc1CNC(=O)N[C@@H]1c2ccccc2OC[C@@H]1CO`, the “% Inhibition” value is listed as 6% and the Z score was -1.1.

For `C=CCC(O)(CC=C)CNS(=O)(=O)N1CCCC1`, the “% Inhibition” value is recorded as -13% and the Z score was determined as 1.76.

With `Cc1cc(Cl)ccc1C(=O)N1C[C@H]2CCC[C@@H](C2)C1`, the “% Inhibition” value is on record as -11% and the Z score worked out at 2.08.

With `CN(C)CC1(CO)CCN(C(=O)C2CCCCCC2)CC1`, the “% Inhibition” value was -6% and the Z score was determined as 1.05.
